Each structure is given as a SMILES string. The list shows a part of the results. Further columns of the screen follow, without active or inactive calls. The list favours compounds with an active or inconclusive main result.

Experimental findings from PubChem BioAssay AID1224903 (Bradner/Qi Labs at DFCI, 2016) are described below.

This test deals with Chromobox protein homolog 7 (Homo sapiens) (UniProt O95931). Description: blockers of CBX7 binding to H3K27me3 peptide – biochemical, AlphaScreen, primary screen (AID 1224903). The note with it: AlphaScreen His6-CBX7 / biotin-H3K27me3 peptide binding; measured here: z-score of CBX7 signal; stronger effect = lower value.
UniProt O95931, sequence (O95931 whole entry, looked up): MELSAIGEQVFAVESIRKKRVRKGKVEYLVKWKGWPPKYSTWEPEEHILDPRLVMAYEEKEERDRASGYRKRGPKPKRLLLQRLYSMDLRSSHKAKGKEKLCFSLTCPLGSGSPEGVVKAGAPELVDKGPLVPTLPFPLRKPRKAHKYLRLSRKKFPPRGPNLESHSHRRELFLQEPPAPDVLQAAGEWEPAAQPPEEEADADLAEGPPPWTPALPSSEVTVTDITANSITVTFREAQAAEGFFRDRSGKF
As to `O=C(CNC1CCCCC1)Nc1c2c(nc3c1CCC3)CCCC2`, the z-score was -8.78.

For `Fc1ccc(C(c2ccc(F)cc2)N2CCN(CCCc3c[nH]c4ccccc34)CC2)cc1`, the z-score is -12.8.

As to `CN(C)CC(=O)Nc1c2c(nc3c1CCC3)CCCC2`, the z-score was -10.3.

Compound `COc1ccc(Nc2nc(N3CCCC3)c3ccccc3n2)cc1` displayed a z-score of -5.02. Then `c1cncc(-c2nnc3ccc4ccccc4n23)c1`, with -8.1; and `Cc1nn(CC(=O)NCCc2c(C)[nH]c3ccc(OCc4ccccc4)cc23)c(C)c1Cl`, with -7.49. Then `COc1ccc(N2CCC(CNS(=O)(=O)c3cccc(Cl)c3)C2)cc1` (stereo unspecified), with -20.4.

On to `COc1ccc(C2Sc3ccccc3NC3=C2C(=O)c2ccccc23)cc1OC` (stereo unspecified), for which the z-score was -9.3.

The compound `CCCCN(C)S(=O)(=O)c1ccc(C(=O)Nc2nnc(C3CC3)o2)cc1` returned a z-score of -1.68.

Consider `Cc1ccccc1Nc1c(-c2ccc(N(C)C)cc2)nc2cccc(C)n12`, for which the z-score was -5.54.

`COc1cccc(CNc2ccc3c(c2)nc(C)n3Cc2ccccc2)c1OC` came in with a z-score of -4.35. Then `Cc1cc(C)cc(NC(=O)CSc2nccn2-c2ccc(Cl)cc2)c1`, with -2.03; and `COc1ccc(CCNc2oc(COc3ccc(C)cc3)nc2C#N)cc1OC`, with -9.41; and `COC(=O)c1c[nH]n2c(NC3CCCC3)c(-c3ccc(F)cc3)nc12`, with -0.807. In turn, `COc1ccc(OC)c(NC(=O)c2c(NCc3cccs3)sc3c2CCCCC3)c1` came in with a z-score of -8.02. Next, `COc1cccc(Nc2nc(-c3ccc(Cl)c(Cl)c3)cs2)c1`: -3.98; `CN(CC(=O)Nc1c2c(nc3c1CCC3)CCCC2)Cc1ccccc1`: -10.1. In the case of `CCc1ccc(-c2nc(CSCC(=O)NC3CCCCCC3)c(C)o2)cc1`, the z-score was -11.4. Next, `Cc1ccc2[nH]c3c(c2c1)CCCC3NCc1ccc(Cl)cc1` (stereo unspecified): -3.17.

With `COc1ccc(C2NC(C(=O)O)Cc3[nH]cnc32)cc1CSc1nc2ccccc2[nH]1` (stereo unspecified), the z-score was -12.3. `Cc1ccn2c(Nc3ccccc3C)c(-c3ccccn3)nc2c1` displayed a z-score of -21.4. In turn, `Cc1ccc2nc(-c3ccccn3)c(Nc3ccc(F)cc3)n2c1` gave a z-score of -17.

As for `O=C(CSc1nnc(-c2cccnc2)o1)Nc1ccc(Cl)c(Cl)c1`, the z-score was -0.627.

Compound `Cc1c(C(=O)NCc2ccccn2)oc2ccc(S(=O)(=O)N3CCC4(CC3)OCCO4)cc12` gave a z-score of -5.41. Next, `O=C(Nc1ccc2[nH]c(=O)[nH]c2c1)c1ncn[nH]1`: -16.1; `COc1ccc(CN2C(=O)c3cccnc3C2Nc2ccc(Br)cc2F)cc1` (stereo unspecified): -10.4.

On to `CCOc1cccc(CNc2ccc3[nH]c(=O)[nH]c3c2)c1OCc1ccc(Cl)cc1`, for which the z-score was -5.87. Then `Cc1nnc(NC(=O)c2ccc(S(=O)(=O)N3CCCc4ccccc43)cc2)o1`, with -1.28; and `Cc1ccc(-n2cc(-c3ccc4c(c3)OCO4)nc2SCC(=O)Nc2cc(C)cc(C)c2)cc1`, with -3.85. On to `COc1cc(C(=O)Nc2nc(-c3ccccn3)cs2)cc(OC)c1OC`, for which the z-score was -27.5.

For the compound `CC(C)Cc1ccc(-c2csc(Nc3ccc4c(c3)OCO4)n2)cc1`, the z-score is -8.89. Regarding `COC(=O)c1c[nH]n2c(NC3CCC(C)CC3)c(-c3ccc(OC)c(OC)c3)nc12` (stereo unspecified), the z-score was -0.822. `COc1cc(Nc2nc(-c3ccc(CC(C)C)cc3)cs2)c(OC)cc1Cl` had a z-score of -5.72.

`COc1nc(OC)nc(-n2cnc(NC(=O)Nc3ccc(Cl)cc3)n2)n1` gave a z-score of -0.848.

Compound `Cc1cccn2c(Nc3ccc4c(c3)OCCO4)c(-c3ccc(Cl)cc3)nc12` yielded a z-score of -4.18. Next, `CCN(CCNC(=O)c1cc(-c2cccnc2)nc2ccccc12)c1ccccc1`: -10.4; `CC1CCN(Cc2cc(Cl)c3cccnc3c2O)CC1`: -35.2.

The compound `COc1cc(S(=O)(=O)NCCc2c(C)[nH]c3ccc(C)cc23)ccc1Cl` came in with a z-score of -0.568. `CCN(CC)S(=O)(=O)c1ccc(C(=O)Nc2nnc(C)o2)cc1` displayed a z-score of -23.8. `O=C(NCCCn1ccnc1)c1cc(-c2ccco2)on1` gave a z-score of -15.4. `COc1ccc(C(NC(=O)CCc2ccccc2)c2ccc3cccnc3c2O)cc1OC` (stereo unspecified) returned a z-score of -3.38.

In turn, `COc1ccc(N2CCN(C(c3cccs3)C(C)NS(=O)(=O)c3ccccc3)CC2)cc1` (stereo unspecified) came in with a z-score of -6.74. Take `Cc1ccccc1-c1nc(CS(=O)(=O)CC(=O)N2CCC(Cc3ccccc3)CC2)c(C)o1`: the z-score is -13.3. With `COc1ccc(-c2nc(-c3ccccc3)c(-c3ccc(Oc4ccccc4)cc3)[nH]2)cc1`, the z-score is -2.08. For the compound `COC(=O)c1c[nH]n2c(NC3CCCCC3)c(-c3ccc(OC)cc3)nc12`, the z-score is -13.5.

Compound `Cc1cccc(Nc2nc(-c3sc(C)nc3C)cs2)c1` gave a z-score of -11. The compound `CCC1CCCCN1S(=O)(=O)c1ccc(C(=O)Nc2nnc(C)o2)cc1` (stereo unspecified) yielded a z-score of -23.6.

Compound `CCc1nnc(NC(=O)c2ccc(S(=O)(=O)N3CCCc4ccccc43)cc2)o1` yielded a z-score of -10.5. Regarding `CCOC(=O)c1cnc2c(C)cc(C)cc2c1Nc1ccc(N(C)C)cc1`, the z-score was -6.48. Next, `COc1ccccc1N1CCN(Cc2cc(Cl)c3cccnc3c2O)CC1`: -35.2. Then `COCc1nnc(NC(=O)c2ccc(S(=O)(=O)N(CC(C)C)CC(C)C)cc2)o1`, with -1.22; and `Cc1nnc(NC(=O)c2ccc(S(=O)(=O)N(C)Cc3ccccc3)cc2)o1`, with -25.8; and `Cc1ccc(-n2ncc3c(NCc4ccccn4)ncnc32)c(C)c1`, with -0.877. Next, `CCC1CCCCN1S(=O)(=O)c1ccc(C(=O)Nc2nnc(-c3ccc(Cl)s3)o2)cc1` (stereo unspecified): -6.97; `Cc1cc(N2CCCCC2)nc2ccc(NC(=O)CCC(=O)N3CCCC(C)C3)cc12` (stereo unspecified): -22.8. `Cc1ccc(Nc2c(-c3ccccn3)nc3cc(C)ccn23)cc1`: the z-score is -21.6.

The compound `O=C(CC(C(=O)N1CCc2ccccc21)n1ccnc1)NC(c1ccccc1)c1ccccc1` (stereo unspecified) had a z-score of -13.7. As to `Cc1ccc2oc(-c3cccc(NC(=O)c4ncn[nH]4)c3)nc2c1`, the z-score is -16. Next, `O=C(Nc1nnc(-c2ccccc2Cl)o1)c1ccc(S(=O)(=O)N2CCOCC2)cc1`: -4.17. Then `CC1CN(S(=O)(=O)c2ccc(C(=O)Nc3nc(-c4ccccn4)cs3)cc2)CC(C)O1` (stereo unspecified), with -23.8. Then `COC(=O)c1c[nH]n2c(NC3CCCC3)c(-c3cccc(OC)c3)nc12`, with -0.694. In turn, `CC(C)n1cnc2cc(NCc3ccc(Cl)cc3)ccc21` showed a z-score of -17.1.

Turning to `COc1cccc(-c2nnc(NC(=O)c3ccc(S(=O)(=O)N(C)C)cc3)o2)c1`, the z-score was -13. As for `Fc1ccc(-c2cc(C(F)(F)F)n3ncnc3n2)cc1`, the z-score is -6.24. Next, `Cc1cccc(C)c1Nc1c(-c2ccccn2)nc2ncccn12`: -0.986. `O=C(Nc1nnc(-c2ccc(Cl)s2)o1)c1ccc(S(=O)(=O)N2CCCC2)cc1`: the z-score is -10.8.
